“And” between values parts separate entries of the source, which are not always exact repeats. Equal entries are not always repeated. Screen size: about 130,000 compounds; about 550 (0.42%) were called active. Inconclusive results, whose numbers are uncertain, are shown with a selection of clear calls. Calls come from the whole dose curve; as a rule, active = well fitted inhibition curve with a large enough effect; inconclusive = small, poorly fitted or top-dose-only effect, or effect the other way; inactive = flat fitted curve, though single readings scatter. Potencies beside an inconclusive call are fits to weak or partial responses and may not hold up.
Experiment: qHTS Assay for Inhibitors of the ERK Signaling Pathway using a Homogeneous Screening Assay; Stimulation with EGF; note: nearly all actives have a fitted effect of over 55% in size
Settings: HEK293-V1b, EGF-stimulated phospho-ERK AlphaScreen
Summary of the method: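 Phospho-ERK1/2 measured by AlphaScreen (SureFire) after 5 min 25 nM EGF stimulation of V1b-expressing HEK293 cells preincubated 30 min at 37C with titrated compounds; data scaled to DMSO and EGF controls, Hill-fitted AC50.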
Potency is the fitted concentration of half-maximal effect; tags give direction and shape of the fitted curve.

Row | SMILES | Potency
1 | O=C(NC1CCCCCC1)c1c2c(nc3ccccc13)CCN(Cc1ccccc1)C2 | inconclusive: 31.6 µM [inhibitor, single point]
2 | O=C(OCc1ccccn1)c1ccc(COc2ccc3ccccc3c2)o1 | inconclusive: 8.91 µM [inhibitor, full curve, poor fit]
3 | O=C(c1csnn1)N1CCC2(CCCN(C(c3ccccc3)c3ccccc3)C2)CC1 | inactive
4 | CCc1cccc(Nc2cc(C)nc3nc(C)nn23)c1 | inactive
5 | O=C1CCC(=O)N1OCCOc1ccc(Cl)c2ccccc12 | inconclusive: 31.6 µM [inhibitor, single point]
6 | Fc1ccc(NC(=S)Nc2ccccc2Cl)cc1 | inconclusive: 6.31 µM [inhibitor, single point]
7 | Cc1cccc(NC(=O)c2nc[nH]c2C(=O)N[C@@H](CC(C)C)C(=O)OC(C)(C)C)c1 | inconclusive: 39.8 µM [inhibitor, single point]
8 | Cc1cccc(C)c1Nc1c(-c2ccc(N3CCOCC3)cc2)nc2ncccn12 | inconclusive: 11.2 µM [inhibitor, partial curve]
9 | O=C1c2ccccc2-c2ncnc3c(N4CCOCC4)cc(N4CCOCC4)c1c23 | inconclusive: 17.8 µM [inhibitor, partial curve]
10 | Cc1cc(NS(=O)(=O)c2ccc(NC(=S)NCc3ccccc3)cc2)no1 | inactive
11 | CSc1nnc2c(n1)c(C)nn2-c1cccc(C)c1 | inconclusive: 15.8 µM [inhibitor, partial curve]
12 | CN1CCN(c2ccccc2NC(=O)c2ccc(-c3cccc([N+](=O)[O-])c3)o2)CC1 | inconclusive: 17.8 µM [inhibitor, single point]
13 | NS(=O)(=O)c1ccc(CNC(=O)c2cc(-c3ccccc3)nc3ccccc23)cc1 | inactive
14 | C(=N\Nc1ccc2ccccc2n1)/c1ccc2c(c1)OCCO2 | inconclusive: 35.5 µM [inhibitor, single point]
15 | COc1cccc(CCc2ccccc2OCC[C@@H]2C[C@@H](O)CN2C)c1 | inconclusive: 31.6 µM [inhibitor, single point]
16 | Oc1cc(O)c2c(c1)OC(c1cc(O)c(O)c(O)c1)C(O)C2 (stereo not drawn) | inactive
17 | O=C1NC(=S)S/C1=C\C=C\c1ccc([N+](=O)[O-])o1 | inconclusive: 31.6 µM [inhibitor, single point]
18 | Cc1ccc(-c2csc(NC(=O)CSc3nc4ccccc4[nH]3)n2)cc1 | inconclusive: 25.1 µM [inhibitor, single point]
19 | Cc1cc(C(=O)N/N=C/c2ccc(O)c(O)c2O)c(C)n1-c1ccccc1 | inconclusive: 1.12 µM [activator, full curve, poor fit]
20 | CSc1ccc(CN2CCN(Cc3ccc([N+](=O)[O-])cc3)CC2)cc1 | inconclusive: 17.8 µM [inhibitor, partial curve]
21 | COCCCNC1=C(Cl)C(=O)c2ccccc2C1=O | inconclusive: 12.6 µM [inhibitor, partial curve]
22 | C/C(=N\Nc1cccc([N+](=O)[O-])c1)c1ccccc1O | inconclusive: 39.8 µM [inhibitor, single point]

Row | SMILES | Potency
23 | CCOc1ccc(NC(=NCc2ccc3c(c2)OCO3)SC2CC(=O)N(c3ccc(C(=O)O)cc3)C2=O)cc1 (stereo not drawn) | inconclusive: 35.5 µM [inhibitor, single point]
24 | O=c1[nH]n2c(=O)c3c([nH]c2c1N=Nc1cccc(Cl)c1)CCC3 | inconclusive: 0.1 µM [activator, full curve, poor fit]
25 | COCCn1c(-c2ccccc2)csc1=Nc1cccnc1 | inconclusive: 35.5 µM [inhibitor, partial curve]
26 | Cc1cccc(NS(=O)(=O)c2cc(NC(=O)CC(=O)c3ccc([N+](=O)[O-])cc3)ccc2C)c1 | inconclusive: 14.1 µM [inhibitor, partial curve]
27 | O=C(O)/C(=C/c1c(C(=O)O)[nH]c2cc(Cl)cc(Cl)c12)c1ccccc1 | inconclusive: 25.1 µM [inhibitor, single point]
28 | O=C(N/N=C/c1ccc[nH]1)c1ccc(COc2cccc3cccnc23)cc1 | active: 25.1 µM
29 | COc1ccc2c(c1)c1ccc3c(c1n2C)C(=O)C=CC3=O | active: 31.6 µM
30 | COc1cc(NC(=S)NCCSc2ccc(C)cc2)cc(OC)c1 | inconclusive: 31.6 µM [inhibitor, single point]
31 | NC(=O)c1ccsc1N | inconclusive: 39.8 µM [inhibitor, single point]
32 | CCCCCC1=C2CNC(CCC)(C(=O)OC)C=C2C(C)C1=O (stereo not drawn) | inactive
33 | C/C(=N\NC(=O)c1ccn(C)n1)c1cccc(NC(=O)c2ccc(C)s2)c1 | inactive
34 | COc1cccc(C(=O)Nc2ccc(Oc3cccc(C(F)(F)F)c3)nc2)c1 | inconclusive: 35.5 µM [inhibitor, single point]
35 | O=C(O)/C=C/c1ccc(O)c(O)c1 | inconclusive: 14.1 µM [inhibitor, partial curve] and inconclusive: 8.91 µM [inhibitor, single point]
36 | O=C(/C=C/c1ccc[nH]1)c1ccc(F)cc1 | inconclusive: 31.6 µM [inhibitor, single point]
37 | O=[N+]([O-])c1ccc(/C=C/C2=NN(c3ccccc3)C(c3ccco3)C2)cc1 (stereo not drawn) | inconclusive: 39.8 µM [inhibitor, single point]
38 | C/C=C/C=C/C(=O)OCC(=O)Nc1ccc(Cl)cc1 | inconclusive: 3.16 µM [inhibitor, single point]
39 | O=C(Nc1ccc(N2CCN(c3ncccc3C(F)(F)F)CC2)nc1)c1cccs1 | active: 14.1 µM
40 | CCC(=O)NNc1ncnc2c1cnn2-c1ccccc1 | inconclusive: 39.8 µM [inhibitor, single point]
41 | Nc1cccc2c1C(=O)N(CC(=O)NC13CC4CC(CC(C4)C1)C3)C2=O | inactive
42 | COc1cccc(-c2nn(-c3ccccc3)cc2CN(C)C(C)c2ccncn2)c1 (stereo not drawn) | inconclusive: 20 µM [inhibitor, partial curve]
43 | CCn1nc(C)c(CNC(=O)c2cc(COc3ccc(F)cc3Cl)on2)c1C | inconclusive: 14.1 µM [inhibitor, partial curve, poor fit]

Reference: PubChem BioAssay AID1454 (National Center for Advancing Translational Sciences (NCATS), 2008)
